In PubChem BioAssay AID1345082 (National Center for Advancing Translational Sciences (NCATS), 2018):
Out of some 94,000 compounds screened, about 4,000 (4.3%) were called active. Inconclusive results, whose numbers are uncertain, are shown with a selection of clear calls. Calls come from the whole dose curve; as a rule, active = well fitted inhibition curve with a large enough effect; inconclusive = small, poorly fitted or top-dose-only effect; inactive = no such curve, though single readings can be large or run the other way. Where the call is inconclusive, the potency comes from a doubtful curve fit.
Potency is the fitted concentration of half-maximal effect; tags give direction and shape of the fitted curve.

Assay: Cytotoxic Profiling in NIH 3T3 Cell Line of Diverse Libraries Using Quantitative High-Throughput Screening; note: nearly all actives have a fitted effect of over 55% in size
Settings: NIH 3T3 viability, CellTiter-Glo ATP luminescence, 48-72 h; series mostly up to 96.7 µM
In short: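 First NIH 3T3 cells are plated at 400 cells/well; next compound is pinned in; then plates incubate 48 or 72 hr at 37 °C; finally CellTiter-Glo is added and luminescence read after 10 min.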
With `COc1ccc(CNc2ncnc3c2CN(c2ccc(Cl)cc2)C(=O)N(C)C3)cc1` the Potency was inconclusive: 50.1 µM [inhibitor, partial curve, poor fit]. With `O=C(C1CCC1)N1CCC(Cc2nc(C3CCOCC3)no2)CC1` the Potency was “inactive”. In the case of `CC1=C[C@@H](CNC(=O)Nc2ccccc2)[C@H](C(C)C)C[C@H]1CC(=O)NCCN(C)C`, the Potency is reported as inconclusive: 112 µM [inhibitor, partial curve, poor fit]. For `O=C1c2c(nc(CNCc3cccc(Cl)c3)n2Cc2ccccc2)NCCN1CC1CC1`, the Potency was inconclusive: 44.7 µM [inhibitor, partial curve, poor fit]. In the case of `O=c1[nH]c2cccnc2n1C1CCCC1`, the Potency is reported as inconclusive: 100 µM [inhibitor, partial curve]. For `CC(=O)N1CCC(C(=O)N2CCC(c3ccccc3)CC2)CC1`, the Potency was “inactive”. In the case of `FC(F)(F)c1ccc2nc([C@H]3CCN(C4CCCCC4)C3)[nH]c2c1`, the Potency is reported as active: 89.1 µM. In the case of `COc1cccc(C(=O)N2CC(Oc3ccccc3-c3nc(C4CC4)no3)C2)c1`, the Potency is reported as inconclusive: 70.8 µM [inhibitor, partial curve, poor fit]. For `O=C(Cc1cccc(F)c1)N1CCC2(CC1)NCCc1c2[nH]c2ccccc12`, the Potency was inconclusive: 50.1 µM [inhibitor, partial curve, poor fit]. In the case of `c1cncc(-c2nc(-c3ccc(OC4CNC4)cc3)no2)c1`, the Potency is reported as inconclusive: 39.8 µM [inhibitor, partial curve]. With `CC(=O)Nc1ccc(C(=O)NC2CCN(c3cc(-c4ccccc4)[nH]n3)CC2)cc1` the Potency was inconclusive: 70.8 µM [inhibitor, single point]. With `COc1ccc(CNC(=O)c2cc3c(s2)CCN(C(=O)c2ccc(C)cc2)C3)cc1` the Potency was inconclusive: 44.7 µM [inhibitor, partial curve, poor fit]. With `CCOC(=O)N1CCC(Oc2cnc3c(ccn3-c3cncnc3)c2)CC1` the Potency was active: 10 µM. In the case of `COCCCNC(=O)c1cn2cc(-c3ccc(C)cc3)sc2n1`, the Potency is reported as inconclusive: 89.1 µM [inhibitor, partial curve]. For `CN1C(=O)CCC2(CNC(=O)Cc3ccccc3)CCC=C12` (centres undefined), the Potency was “inactive”. For `COc1ccc(CCN(C)C(=O)CC(c2cccc(F)c2)c2cn(C)c3ccccc23)cc1OC` (centres undefined), the Potency was inconclusive: 44.7 µM [inhibitor, partial curve, poor fit]. With `O=C(CN1C(=O)COc2ccc(C(=O)COc3ccc(Cl)cc3F)cc21)NC1CCCCC1` the Potency was inconclusive: 35.5 µM [inhibitor, partial curve, poor fit]. For `Cc1nnc(-c2cc(N3CCN(c4ccccn4)CC3)ccn2)n1C1CCCCC1`, the Potency was inconclusive: 89.1 µM [inhibitor, partial curve]. In the case of `CSCC(=O)N(Cc1ccncc1)C1CCN(C)CC1`, the Potency is reported as “inactive”. With `COc1ccc(CNC(=O)c2cc3n(n2)CC(c2ccc(Cl)cc2)OC3)cc1OC` (centres undefined) the Potency was inconclusive: 44.7 µM [inhibitor, partial curve, poor fit]. With `COc1ccc(NC(=O)Cn2c(-c3cccc(Cl)c3)nc(C)c(CCO)c2=O)cc1OC` the Potency was “inactive”. In the case of `O=C(O)CC1NCCNC1=O` (centres undefined), the Potency is reported as “inactive”. In the case of `Fc1ccc(OCCc2noc(C3CCCNC3)n2)cc1` (centres undefined), the Potency is reported as “inactive”. In the case of `Cc1nc(CN2CC3(CCN(C)C3)c3cc(C(=O)NCCc4ccccc4)ccc32)cs1` (centres undefined), the Potency is reported as inconclusive: 70.8 µM [inhibitor, partial curve, poor fit]. For `O=C(c1ccncc1)N1C2CCC1CN(c1ccc(C(F)(F)F)cc1)C2`, the Potency was inconclusive: 35.5 µM [inhibitor, partial curve]. With `CNC(=O)c1ccc(NC(=O)c2nc(C(O)c3ccccc3F)oc2C)cc1` (centres undefined) the Potency was “inactive”. With `COc1ccc(Nc2ccc3c(n2)CN(Cc2ccc(F)cc2)C(=O)CO3)cn1` the Potency was inconclusive: 56.2 µM [inhibitor, partial curve, poor fit]. In the case of `O=C(NCc1cccc(F)c1)C1CCCN(Cc2cccc(-c3cccs3)c2)C1` (centres undefined), the Potency is reported as active: 39.8 µM. For `Cc1ccc(CN2CCCC3(CNc4ccccc4[S+](=O)([O-])N3)C2)cc1` (centres undefined), the Potency was inconclusive: 50.1 µM [inhibitor, partial curve, poor fit]. In the case of `CN1[C@@H](CCC(=O)N2CCN(c3ccccn3)CC2)CNC(=O)[C@@H]2[C@H]1CCN2Cc1ncc[nH]1`, the Potency is reported as “inactive”. In the case of `CC1(CCCCc2ccccc2)COc2ccc(C(=O)NC3CCOCC3)cc2N1` (centres undefined), the Potency is reported as inconclusive: 89.1 µM [inhibitor, single point]. In the case of `COc1ccc2c(c1)OC[C@@H]1CN(C)C(=O)CCN(C(=O)Cc3cccs3)[C@H]21`, the Potency is reported as inconclusive: 70.8 µM [inhibitor, single point]. For `Cc1nc(CN2CCOc3cc([S+](=O)([O-])N(C)C)ccc3C2)cs1`, the Potency was inconclusive: 89.1 µM [inhibitor, partial curve]. In the case of `O=C(NC1CCN(c2cc(-c3cccs3)[nH]n2)CC1)c1cc(Cl)ccc1F`, the Potency is reported as inconclusive: 25.1 µM [inhibitor, full curve]. For `CCCc1ccc(S(=O)(=O)N2CCC3(CC2)[C@H](C(=O)NC)[C@@H](OC(N)=O)C(=O)N3C)cc1`, the Potency was inconclusive: 70.8 µM [inhibitor, partial curve, poor fit]. In the case of `COCCCNC(=O)c1ccnc(-c2nnc3ccc(N(C)C)nn23)c1`, the Potency is reported as inconclusive: 100 µM [inhibitor, single point]. With `CC(C)c1cnc(-c2ccncc2)[nH]1` the Potency was “inactive”. For `CCc1cn[nH]c1C1CCCN(C(=O)c2cnn(-c3ccccc3OC)c2)C1` (centres undefined), the Potency was inconclusive: 39.8 µM [inhibitor, full curve, poor fit]. In the case of `COC(=O)N1CCC2(C1)C(=O)N(CCc1ccccc1)c1ccccc12` (centres undefined), the Potency is reported as inconclusive: 79.4 µM [inhibitor, partial curve, poor fit]. For `O=C(c1ccccc1)N1Cc2ccccc2CC2(CCCN2Cc2ccncc2)C1` (centres undefined), the Potency was inconclusive: 70.8 µM [inhibitor, single point]. In the case of `O=C(NC1CC1)[C@@H]1CN(Cc2ccc(F)cc2F)C[C@H]1CO`, the Potency is reported as “inactive”. For `Cc1nn(-c2ccccc2)c2c1C(C(C)C)N(C1CCN(C(=O)c3ccc(Cl)cc3)C1)C2=O` (centres undefined), the Potency was inconclusive: 44.7 µM [inhibitor, partial curve, poor fit]. With `Cc1ccc(C(=O)N2C(C(=O)NC(C)C)COC23CCN(C(=O)c2ccccc2F)CC3)cc1` (centres undefined) the Potency was inconclusive: 50.1 µM [inhibitor, partial curve, poor fit]. In the case of `O=C(C1CCOCC1)N1CCC(Oc2nccnc2N2CCOCC2)C1` (centres undefined), the Potency is reported as “inactive”. For `O=C(NCC1CCN(c2cc(-c3ccccc3)[nH]n2)CC1)c1n[nH]c2c1CCCC2`, the Potency was active: 31.6 µM. In the case of `COC(=O)C1=C(C)N=C2SC=C(CC(=O)NCCc3ccccc3)N2C1c1cccc(OC)c1` (centres undefined), the Potency is reported as inconclusive: 44.7 µM [inhibitor, partial curve, poor fit]. In the case of `CCNC(=O)[C@@H]1CCCN1[C@@H](C(=O)NC)C1CC1`, the Potency is reported as “inactive”. For `O=C1CCC2(CCCO2)CCN1Cc1ccc(C(F)(F)F)cc1` (centres undefined), the Potency was inconclusive: 100 µM [inhibitor, single point]. For `OC[C@@H]1CN(C2CCCCC2)C[C@H]1c1nc(-c2ccncc2)no1`, the Potency was “inactive”. With `Cc1nn(-c2ccc(C(C)(C)C)cc2)c(C)c1[C@@H]1C=C[C@@H](NC(=O)NCc2ccccc2)C1` the Potency was inconclusive: 39.8 µM [inhibitor, partial curve, poor fit]. In the case of `O=C(C1CCCC1)N1CCCC(c2noc(COc3ccccc3)n2)C1` (centres undefined), the Potency is reported as inconclusive: 44.7 µM [inhibitor, partial curve, poor fit]. In the case of `O=C1C(N2CCN(S(=O)(=O)Cc3cccc(Cl)c3)CC2)CCN1Cc1cccnc1` (centres undefined), the Potency is reported as “inactive”. In the case of `COc1ccccc1-c1nnc2ccc(C(=O)NCCc3ccccc3)cn12`, the Potency is reported as inconclusive: 50.1 µM [inhibitor, partial curve, poor fit]. With `Cc1ccc(-c2cc(C(=O)N3CCN(c4ccccc4)CC3)c3cnn(C)c3n2)cc1` the Potency was inconclusive: 44.7 µM [inhibitor, partial curve, poor fit]. With `O=C(Cc1ccc2c(c1)OCO2)N1CCc2c(n(CCOc3ccccc3)n(-c3ccccc3)c2=O)C1` the Potency was inconclusive: 2.82 µM [inhibitor, full curve, poor fit]. In the case of `COc1ccc(C(=O)NC2CCN(c3ccc4nnc(C)n4n3)CC2)cc1`, the Potency is reported as inconclusive: 44.7 µM [inhibitor, partial curve, poor fit]. For `C[C@@]1(O)CCN(C(=O)CCc2ccc(-c3cccs3)o2)C[C@@H]1O`, the Potency was “inactive”. With `O=C(NCCc1cccnc1)c1cc2n(n1)CC(c1ccc(Br)cc1)OC2` (centres undefined) the Potency was inconclusive: 39.8 µM [inhibitor, partial curve, poor fit]. In the case of `CN1C(=O)CCCCC1C(=O)NCc1ccccc1` (centres undefined), the Potency is reported as “inactive”. With `CNC(=O)C1CCCN(c2nccc(Nc3ccccc3F)n2)C1` (centres undefined) the Potency was inconclusive: 100 µM [inhibitor, partial curve]. In the case of `C[C@]12CC[C@H](O)CC1=CCC[C@@H]2OC(=O)NCc1ccccc1`, the Potency is reported as inconclusive: 56.2 µM [inhibitor, partial curve, poor fit]. For `CCN1CCN(C(=O)c2cc3n(n2)CC(c2ccc(Br)cc2)OC3)CC1` (centres undefined), the Potency was inconclusive: 44.7 µM [inhibitor, partial curve, poor fit]. With `O=C(Cc1cccc(Cl)c1)N1CCCC1C(=O)N1CCCC1c1nc2ccncc2[nH]1` (centres undefined) the Potency was “inactive”. In the case of `O=[S+]([O-])(c1cccs1)N1CC(Oc2ccc(F)cc2F)C1`, the Potency is reported as inconclusive: 79.4 µM [inhibitor, partial curve].
